Tests used:
A549 cells [1] = test: RT-qPCR detection of nucleic acid delivered by lipid into A549 cells; type: cell-based, human
MRC-5 cells = test: RT-qPCR detection of nucleic acid delivered by lipid into MRC-5 cells; type: cell-based, human
A549 cells [2] = test: Confocal fluorescence microscopy of lipid-delivered nucleic acid in A549 cells; type: cell-based, human; settings: boiling method; 6 hours
Description: (§1) […] Then the mixture was dropped into A549 cells, and after 6 hours of co-incubation, the samples were washed three times with PBS, fixed with 4% paraformaldehyde, washed three times with PBS, stained with Alexa Fluor® 488 phalloidin for 30 min, washed 3 times with PBS, and stained with DAPI for 5 min, washed with PBS, and then sealed.
as §1, with “Then,” for “Then”, “PBS washed,” for “washed with PBS,”

[3] = In vivo delivery of small RNA into mouse blood, stomach, small intestine and liver via gavage (RT-qPCR); settings: intragastric, each small RNA 1 nmol/animal, lipid 10 μl/animal; 6 hours
[4] = single lipid, HJT-sRNA-m7, boiling method

Structure (SMILES)	delivery of double-stranded RNA into A549 cells (RT-qPCR) (A549 cells [1]; single lipid 2.5 μL, HJT-sRNA-m7 100 nM, boiling or reverse evaporation method)	delivery of single-stranded RNA into A549 cells (RT-qPCR) (A549 cells [1]; [4])	delivery effect of lipid compared with RNAiMAX (RT-qPCR) (MRC-5 cells; HJT-sRNA-m7 double-stranded RNA, MRC-5 cells, reverse evaporation method)	delivery of single-stranded RNA into MRC-5 cells (RT-qPCR) (MRC-5 cells; [4])	delivery of double-stranded RNA into MRC-5 cells (RT-qPCR) (MRC-5 cells; single lipid, boiling method)	entry of PGY-sRNA-6-Cy3 into A549 cells (confocal microscopy) (A549 cells [2])	entry of small RNA into small intestinal cells [3]	entry of small RNA into the blood [3]	entry of small RNA into the liver [3]	entry of small RNA into the stomach cells [3]
CCCCCC/C=C\CCCCCCCC(=O)O[C@H](COC(=O)CCCCCCCCCCCCCCC)COP(=O)(O)OCCN [lipid No. 38, PE(16:0/16:1)]	delivered double-stranded RNA into A549 and MRC-5 cells									
CCCCCCCCCCCCCCCCCCC[C@@H](O)[C@@H](N)CO [lipid No. 41, Sphinganine (d22:0)]		delivered HJT-sRNA-m7 single-stranded RNA into A549 and MRC-5 cells	significantly higher than that of RNAiMAX	delivered HJT-sRNA-m7 single-stranded RNA into A549 and MRC-5 cells	delivered double-stranded RNA into MRC-5 cells	could effectively deliver double-stranded nucleic acid into A549 cells	could promote the entry of small RNA into small intestinal cells	could promote the entry of small RNA into the blood	could promote the entry of small RNA into the liver	could promote the entry of small RNA into the stomach cells

Source: patent publication US12280114B2, “Extraction of plant source “medicinal soup” and manual preparation of “herbal medicine” and related products” (BEIJING BAISHIHEKANG PHARMACEUTICAL TECHNOLOGY (BSJPHARMA) …, priority 2018, dated 2025)
